Results: patent publication US20140005245A1, “INSECTICIDAL COMPOUNDS” (SYNGENTA PARTICIPATIONS AG, priority 2011, published 2014)
Some results were stated once for a whole list of compounds, not compound by compound.

Legend:
Assay type in all cases: in vivo
[1] = system: Heliothis virescens; assay: Heliothis virescens (tobacco budworm) egg/artificial diet test; conditions: application rate 200 ppm (concentration in well 18 pm), eggs 0 to 24 h old on artificial diet; egg mortality, larval mortality, growth regulation after 4 days
[2] = system: Plutella xylostella; assay: Plutella xylostella (diamond back moth) artificial diet test; conditions: application rate 200 ppm (concentration in well 18 ppm), L2 larvae, larval mortality, growth regulation after 6 days
[3] = system: Diabrotica balteata; assay: Diabrotica balteata (corn root worm) artificial diet test; conditions: application rate 200 ppm (concentration in well 18 ppm), L2 larvae, larval mortality, growth regulation after 5 days
[4] = system: Tetranychus urticae; assay: Tetranychus urticae (two-spotted spider mite) bean leaf disc spray test; conditions: application rate 200 ppm, bean leaf discs sprayed, mite populations of mixed ages; egg, larval and adult mortality 8 days later
[5] = system: Thrips tabaci; assay: Thrips tabaci (onion thrips) sunflower leaf disc spray test; conditions: application rate 200 ppm, sunflower leaf discs sprayed, population of mixed ages; mortality after 7 days

| SMILES | control of Heliothis virescens [1] | control of Plutella xylostella [2] | control of Diabrotica balteata [3] | control of Tetranychus urticae [4] | control of Thrips tabaci [5] |
| --- | --- | --- | --- | --- | --- |
| Cc1csc(NC(=O)c2cccc(-c3cn(-c4c(C(F)(F)F)c(C(F)(F)C(F)(F)F)nn4C)nn3)c2)n1 [Compound A126] | at least 80% | at least 80% | at least 80% | – | – |
| CSCCNC(=O)c1cccc(-c2cn(-c3c(C(F)(F)F)c(C(F)(F)C(F)(F)F)nn3C)nn2)c1 [Compound A133] | – | – | – | at least 80% | – |
| Cn1nc(C(F)(F)C(F)(F)F)c(C(F)(F)F)c1-n1cc(-c2ccc(Cl)c(C(=O)NC3(C)CSC3)c2)nn1 [Compound A20] | – | at least 80% | – | at least 80% | – |
| Cn1nc(C(F)(F)C(F)(F)F)c(C(F)(F)F)c1-n1cc(-c2cccc(C(=O)NC3CS(=O)(=O)C3)c2)nn1 [Compound A122] | – | at least 80% | – | – | at least 80% |
| Cn1nc(C(F)(F)C(F)(F)F)c(C(F)(F)F)c1-n1cc(-c2cccc(C(=O)NC3CCSC3)c2)nn1 (stereo not drawn) [Compound A134] | – | at least 80% | – | at least 80% | – |
| Cn1nc(C(F)(F)C(F)(F)F)c(C(F)(F)F)c1-n1cc(-c2ccc(Cl)c(C(=O)NC3CSC3)c2)nn1 [Compound A23] | – | at least 80% | at least 80% | at least 80% | – |
| Cn1nc(C(F)(F)C(F)(F)F)c(C(F)(F)F)c1-n1cc(-c2ccc(Cl)c(C(=O)NC(C)(C)C)c2)nn1 [Compound A138] | – | at least 80% | at least 80% | at least 80% | at least 80% |
| Cn1nc(C(F)(F)C(F)(F)F)c(C(F)(F)F)c1-n1cc(-c2ccc(Cl)c(C(=O)NCc3ccccn3)c2)nn1 [Compound A2] | at least 80% | at least 80% | – | at least 80% | at least 80% |
| CSCC(C)(C)NC(=O)c1cc(-c2cn(-c3c(C(F)(F)F)c(C(F)(F)C(F)(F)F)nn3C)nn2)ccc1Cl [Compound A21] | – | at least 80% | – | at least 80% | – |
| Cn1nc(C(F)(F)C(F)(F)F)c(C(F)(F)F)c1-n1cc(-c2ccc(Cl)c(C(=O)NC3CCSC3)c2)nn1 (stereo not drawn) [Compound A28] | – | – | at least 80% | at least 80% | – |
| Cn1nc(C(F)(F)C(F)(F)F)c(C(F)(F)F)c1-n1cc(-c2cccc(C(=O)NC3C[S+]([O-])C3)c2)nn1 (stereo not drawn) [Compound A129] | – | – | – | – | at least 80% |
| CCN(C(=O)c1cccc(-c2cn(-c3c(C(F)(F)F)c(C(F)(F)C(F)(F)F)nn3C)nn2)c1F)c1cc[n+]([O-])cc1 [Compound A151] | – | – | – | – | at least 80% |
| Cn1nc(C(F)(F)C(F)(F)F)c(C(F)(F)F)c1-n1cc(-c2ccc(Cl)c(C(=O)NCCC3OCCO3)c2)nn1 [Compound A41] | – | – | – | at least 80% | – |
| CC(=O)c1sc(NC(=O)c2cc(-c3cn(-c4c(C(F)(F)F)c(C(F)(F)C(F)(F)F)nn4C)nn3)ccc2Cl)nc1C [Compound A91] | – | at least 80% | – | – | – |
| COC(=O)c1ccc(NC(=O)c2cc(-c3cn(-c4c(C(F)(F)F)c(C(F)(F)C(F)(F)F)nn4C)nn3)ccc2Cl)cc1 [Compound A64] | – | at least 80% | at least 80% | – | – |
| Cn1nc(C(F)(F)C(F)(F)F)c(C(F)(F)F)c1-n1cc(-c2ccc(Cl)c(C(=O)NCc3ccccc3OC(F)(F)F)c2)nn1 [Compound A56] | at least 80% | – | – | – | at least 80% |
| Cn1nc(C(F)(F)C(F)(F)F)c(C(F)(F)F)c1-n1cc(-c2cccc(C(=O)NCc3ccccc3F)c2)nn1 [Compound A119] | – | at least 80% | at least 80% | at least 80% | – |
| Cn1nc(C(F)(F)C(F)(F)F)c(C(F)(F)F)c1-n1cc(-c2ccc(Cl)c(C(=O)Nc3cccc4ncccc34)c2)nn1 [Compound A68] | – | – | at least 80% | at least 80% | – |
| Cn1nc(C(F)(F)C(F)(F)F)c(C(F)(F)F)c1-n1cc(-c2ccc(Cl)c(C(=O)NCc3ccc(-n4cccn4)cc3)c2)nn1 [Compound A55] | – | at least 80% | at least 80% | at least 80% | – |
| Cn1nc(C(F)(F)C(F)(F)F)c(C(F)(F)F)c1-n1cc(-c2ccc(Cl)c(C(=O)NCC[S+](C)[O-])c2)nn1 (stereo not drawn) [Compound A26] | – | – | – | at least 80% | at least 80% |
| Cn1nc(C(F)(F)C(F)(F)F)c(C(F)(F)F)c1-n1cc(-c2ccc(Cl)c(C(=O)NCc3cc(-c4ccc(Cl)cc4)no3)c2)nn1 [Compound A47] | – | – | at least 80% | – | – |

| SMILES | control of Heliothis virescens [1] | control of Plutella xylostella [2] | control of Diabrotica balteata [3] | control of Tetranychus urticae [4] | control of Thrips tabaci [5] |
| --- | --- | --- | --- | --- | --- |
| Cn1nc(C(F)(F)C(F)(F)F)c(C(F)(F)F)c1-n1cc(-c2cccc(C(=O)NCc3ccccc3)c2)nn1 [Compound A118] | – | at least 80% | – | – | – |
| Cn1nc(C(F)(F)C(F)(F)F)c(C(F)(F)F)c1-n1cc(-c2cccc(C(=O)NCC3CCCO3)c2)nn1 (stereo not drawn) [Compound A117] | – | – | – | at least 80% | – |
| Cn1nc(C(F)(F)C(F)(F)F)c(C(F)(F)F)c1-n1cc(-c2cccc(C(=O)NCC(=O)NCC(F)(F)F)c2)nn1 [Compound A114] | at least 80% | – | – | at least 80% | at least 80% |
| CCC(C)NC(=O)c1cc(-c2cn(-c3c(C(F)(F)F)c(C(F)(F)C(F)(F)F)nn3C)nn2)ccc1Cl (stereo not drawn) [Compound A9] | – | – | – | at least 80% | – |
| CC(NC(=O)c1cc(-c2cn(-c3c(C(F)(F)F)c(C(F)(F)C(F)(F)F)nn3C)nn2)ccc1Cl)c1ccccc1 (stereo not drawn) [Compound A13] | – | at least 80% | – | – | – |
| Cn1nc(C(F)(F)C(F)(F)F)c(C(F)(F)F)c1-n1cc(-c2ccc(Cl)c(C(=O)NCc3ccc4c(c3)OCCO4)c2)nn1 [Compound A53] | – | at least 80% | at least 80% | at least 80% | – |
| Cc1cccc(Cl)c1NC(=O)c1cc(-c2cn(-c3c(C(F)(F)F)c(C(F)(F)C(F)(F)F)nn3C)nn2)ccc1Cl [Compound A67] | – | at least 80% | – | – | – |
| Cn1nc(C(F)(F)C(F)(F)F)c(C(F)(F)F)c1-n1cc(-c2cccc(C(=O)NCc3ccccc3)c2F)nn1 [Compound A146] | at least 80% | at least 80% | – | – | – |
| Cn1nc(C(F)(F)C(F)(F)F)c(C(F)(F)F)c1-n1cc(-c2cccc(C(=O)Nc3cc[n+]([O-])cc3)c2F)nn1 [Compound A149] | at least 80% | – | – | – | – |
| COc1ccc(CNC(=O)c2cc(-c3cn(-c4c(C(F)(F)F)c(C(F)(F)C(F)(F)F)nn4C)nn3)ccc2Cl)cc1 [Compound A14] | at least 80% | at least 80% | – | at least 80% | at least 80% |
| Cn1nc(C(F)(F)C(F)(F)F)c(C(F)(F)F)c1-n1cc(-c2ccc(Cl)c(C(=O)NCc3cccnc3)c2)nn1 [Compound A45] | – | – | at least 80% | – | – |
| Cc1cccnc1NC(=O)c1cc(-c2cn(-c3c(C(F)(F)F)c(C(F)(F)C(F)(F)F)nn3C)nn2)ccc1Cl [Compound A85] | – | at least 80% | – | at least 80% | – |
| Cn1nc(C(F)(F)C(F)(F)F)c(C(F)(F)F)c1-n1cc(-c2ccc(Cl)c(C(=O)NCc3ccco3)c2)nn1 [Compound A62] | – | – | – | at least 80% | – |
| Cn1nc(C(F)(F)C(F)(F)F)c(C(F)(F)F)c1-n1cc(-c2ccc(Cl)c(C(=O)NCc3ccc(Cl)nc3)c2)nn1 [Compound A16] | at least 80% | at least 80% | at least 80% | – | at least 80% |
| Cn1nc(C(F)(F)C(F)(F)F)c(C(F)(F)F)c1-n1cc(-c2ccc(Cl)c(C(=O)NCc3cccc(Cl)c3)c2)nn1 [Compound A52] | – | at least 80% | at least 80% | at least 80% | – |
| Cn1nc(C(F)(F)C(F)(F)F)c(C(F)(F)F)c1-n1cc(-c2ccc(Cl)c(C(=O)Nc3ccc4[nH]ncc4c3)c2)nn1 [Compound A70] | – | at least 80% | – | at least 80% | – |
| Cn1nc(C(F)(F)C(F)(F)F)c(C(F)(F)F)c1-n1cc(-c2cccc(C(=O)NCC[S+](C)[O-])c2)nn1 (stereo not drawn) [Compound A132] | – | – | – | at least 80% | – |
| COc1c(C(=O)NC2CC2)cccc1-c1cn(-c2c(C(F)(F)F)c(C(F)(F)C(F)(F)F)nn2C)nn1 [Compound A147] | at least 80% | at least 80% | at least 80% | – | – |
| COCC(C)NC(=O)c1cc(-c2cn(-c3c(C(F)(F)F)c(C(F)(F)C(F)(F)F)nn3C)nn2)ccc1Cl (stereo not drawn) [Compound A6] | – | – | – | – | at least 80% |
| Cn1nc(C(F)(F)C(F)(F)F)c(C(F)(F)F)c1-n1cc(-c2ccc(Cl)c(C(=O)NCc3ccccc3F)c2)nn1 [Compound A12] | at least 80% | at least 80% | at least 80% | – | – |
| Cn1nc(C(F)(F)C(F)(F)F)c(C(F)(F)F)c1-n1cc(-c2ccc(Cl)c(C(=O)NC3C[S+]([O-])C3)c2)nn1 (stereo not drawn) [Compound A22] | at least 80% | at least 80% | at least 80% | at least 80% | – |
